# The other results are listed elsewhere or left out.
# B1: ECA (Erythrina cristagalli), P83410 (protein)
# chain: VETISFSFSEFEPGNDNLTLQGAALITQSGVLQLTKINQNGMPAWDSTGRTLYTKPVHMWDSTTGTVASFETRFSFSIEQPYTRPLPADGLVFFMGPTKSKPAQGYGYLGVFNNSKQDNSYQTLAVEFDTFSNPWDPPQVPHIGIDVNSIRSIKTQPFQLDNGQVANVVIKYDAPSKILHVVLVYPSSGAIYTIAEIVDVKQVLPDWVDVGLSGATGAQRDAAETHDVYSWSFQASLPE
# Experiments:
# Assay in all cases: glycan array binding signal (z-score within array); higher = stronger binding
# Settings in all cases: glycan notation: IUPAC condensed, linker removed
# [1] = molecular target: Gal(b1-3)GlcNAc(b1-3)GalNAc
# How it was run: (§1)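 Glycan array data came from 3228 arrays in the Consortium for Functional Glycomics database, and only arrays with an available protein sequence were kept. Glycan names were put into IUPAC-condensed notation, and columns mapping to the same glycan were averaged. The binding signal is a within-array Z-score, averaged across arrays of one protein sequence run at different concentrations or buffers and across linkers. A negative Z-score can be read as non-binding.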
# [2] = molecular target: Gal(b1-3)GlcNAc(b1-6)Gal(b1-4)GlcNAc
# How it was run: as §1
# [3] = molecular target: Gal(b1-3)GlcNAc(b1-6)GalNAc
# How it was run: as §1
# [4] = molecular target: Gal(b1-3)GlcNAc(b1-6)[Gal(b1-3)]GalNAc
# How it was run: as §1
# Gal(b1-3)GlcNAc6S = molecular target: Gal(b1-3)GlcNAc6S
# How it was run: as §1
# [5] = molecular target: Gal(b1-3)[Fuc(a1-4)]GlcNAc
# How it was run: as §1
# [6] = molecular target: Gal(b1-3)[Fuc(a1-4)]GlcNAc(b1-2)Man
# How it was run: as §1
# [7] = molecular target: Gal(b1-3)[Fuc(a1-4)]GlcNAc(b1-2)Man(a1-3)[Gal(b1-3)[Fuc(a1-4)]GlcNAc(b1-2)Man(a1-6)]Man(b1-4)GlcNAc(b1-4)[Fuc(a1-6)]GlcNAc
# How it was run: as §1
# [8] = molecular target: Gal(b1-3)[Fuc(a1-4)]GlcNAc(b1-3)Gal(b1-3)[Fuc(a1-4)]GlcNAc
# How it was run: as §1
# [9] = molecular target: Gal(b1-3)[Fuc(a1-4)]GlcNAc(b1-3)Gal(b1-4)GlcNAc
# How it was run: as §1
# [10] = molecular target: Gal(b1-3)[Fuc(a1-4)]GlcNAc(b1-3)Gal(b1-4)[Fuc(a1-3)]GlcNAc
# How it was run: as §1
# [11] = molecular target: Gal(b1-3)[Fuc(a1-4)]GlcNAc(b1-6)GalNAc
# How it was run: as §1
# [12] = molecular target: Gal(b1-3)[GlcNAc(b1-6)]GalNAc
# How it was run: as §1
# [13] = molecular target: Gal(b1-3)[Neu5Ac(a2-6)]GalNAc
# How it was run: as §1
# [14] = molecular target: Gal(b1-3)[Neu5Ac(a2-6)]GlcNAc(b1-4)Gal(b1-4)Glc
# How it was run: as §1
# [15] = molecular target: Gal(b1-3)[Neu5Ac(a2-6)]GlcNAc(b1-6)Gal(b1-4)Glc
# How it was run: as §1
# [16] = molecular target: Gal(b1-3)[Neu5Ac(b2-6)]GalNAc
# How it was run: as §1
# Gal(b1-4)Gal = molecular target: Gal(b1-4)Gal
# How it was run: as §1
# [17] = molecular target: Gal(b1-4)GalNAc(a1-3)[Fuc(a1-2)]Gal(b1-4)GlcNAc
# How it was run: as §1
# [18] = molecular target: Gal(b1-4)GalNAc(b1-3)[Fuc(a1-2)]Gal(b1-4)GlcNAc
# How it was run: as §1
# Gal(b1-4)Glc = molecular target: Gal(b1-4)Glc
# How it was run: as §1
# Gal(b1-4)Glc6S = molecular target: Gal(b1-4)Glc6S
# How it was run: as §1
# Gal(b1-4)GlcNAc = molecular target: Gal(b1-4)GlcNAc
# How it was run: as §1
# [19] = molecular target: Gal(b1-4)GlcNAc(a1-6)Gal(b1-4)GlcNAc
# How it was run: as §1
# Gal(b1-4)GlcNAc(b1-2)Man = molecular target: Gal(b1-4)GlcNAc(b1-2)Man
# How it was run: as §1
# [20] = molecular target: Gal(b1-4)GlcNAc(b1-2)Man(a1-3)Man(b1-4)GlcNAc(b1-4)GlcNAc
# How it was run: as §1
# [21] = molecular target: Gal(b1-4)GlcNAc(b1-2)Man(a1-3)[Gal(b1-4)GlcNAc(b1-2)Man(a1-6)]Man(b1-4)GlcNAc(b1-4)GlcNAc
# How it was run: as §1
# [22] = molecular target: Gal(b1-4)GlcNAc(b1-2)Man(a1-3)[Gal(b1-4)GlcNAc(b1-2)Man(a1-6)]Man(b1-4)GlcNAc(b1-4)[Fuc(a1-6)]GlcNAc
# How it was run: as §1
# [23] = molecular target: Gal(b1-4)GlcNAc(b1-2)Man(a1-3)[Gal(b1-4)GlcNAc(b1-2)Man(a1-6)][Gal(b1-4)GlcNAc(b1-4)]Man(b1-4)GlcNAc(b1-4)[Fuc(a1-6)]GlcNAc
# How it was run: as §1
# [24] = molecular target: Gal(b1-4)GlcNAc(b1-2)Man(a1-3)[Gal(b1-4)GlcNAc(b1-2)Man(a1-6)][GlcNAc(b1-4)]Man(b1-4)GlcNAc(b1-4)[Fuc(a1-6)]GlcNAc
# How it was run: as §1
# [25] = molecular target: Gal(b1-4)GlcNAc(b1-2)Man(a1-3)[GlcNAc(b1-2)Man(a1-6)]Man(b1-4)GlcNAc(b1-4)GlcNAc
# How it was run: as §1
# [26] = molecular target: Gal(b1-4)GlcNAc(b1-2)Man(a1-3)[GlcNAc(b1-4)][Gal(b1-4)GlcNAc(b1-2)Man(a1-6)]Man(b1-4)GlcNAc(b1-4)GlcNAc
# How it was run: as §1
# [27] = molecular target: Gal(b1-4)GlcNAc(b1-2)Man(a1-3)[Man(a1-6)]Man(b1-4)GlcNAc(b1-4)GlcNAc
# How it was run: as §1
# [28] = molecular target: Gal(b1-4)GlcNAc(b1-2)Man(a1-6)Man(b1-4)GlcNAc(b1-4)GlcNAc
# How it was run: as §1
# [29] = molecular target: Gal(b1-4)GlcNAc(b1-2)Man(a1-6)[GlcNAc(b1-2)Man(a1-3)]Man(b1-4)GlcNAc(b1-4)GlcNAc
# How it was run: as §1
# [30] = molecular target: Gal(b1-4)GlcNAc(b1-2)Man(a1-6)[Man(a1-3)]Man(b1-4)GlcNAc(b1-4)GlcNAc
# How it was run: as §1
# [31] = molecular target: Gal(b1-4)GlcNAc(b1-2)[Gal(b1-4)GlcNAc(b1-4)]Man(a1-3)[Gal(b1-4)GlcNAc(b1-2)Man(a1-6)]Man(b1-4)GlcNAc(b1-4)GlcNAc
# How it was run: as §1
# [32] = molecular target: Gal(b1-4)GlcNAc(b1-2)[Gal(b1-4)GlcNAc(b1-4)]Man(a1-3)[Gal(b1-4)GlcNAc(b1-2)[Gal(b1-4)GlcNAc(b1-6)]Man(a1-6)]Man(b1-4)GlcNAc(b1-4)GlcNAc
# How it was run: as §1
# [33] = molecular target: Gal(b1-4)GlcNAc(b1-2)[Gal(b1-4)GlcNAc(b1-4)]Man(a1-3)[GlcNAc(b1-4)][Gal(b1-4)GlcNAc(b1-2)Man(a1-6)]Man(b1-4)GlcNAc(b1-4)GlcNAc
# How it was run: as §1
# [34] = molecular target: Gal(b1-4)GlcNAc(b1-2)[Gal(b1-4)GlcNAc(b1-4)]Man(a1-3)[GlcNAc(b1-4)][Gal(b1-4)GlcNAc(b1-2)[Gal(b1-4)GlcNAc(b1-6)]Man(a1-6)]Man(b1-4)GlcNAc(b1-4)GlcNAc
# How it was run: as §1
# [35] = molecular target: Gal(b1-4)GlcNAc(b1-2)[Gal(b1-4)GlcNAc(b1-6)]Man(a1-6)[Gal(b1-4)GlcNAc(b1-2)Man(a1-3)]Man(b1-4)GlcNAc(b1-4)GlcNAc
# How it was run: as §1
# [36] = molecular target: Gal(b1-4)GlcNAc(b1-2)[Gal(b1-4)GlcNAc(b1-6)]Man(a1-6)[Gal(b1-4)GlcNAc(b1-2)Man(a1-3)]Man(b1-4)GlcNAc(b1-4)[Fuc(a1-6)]GlcNAc
# How it was run: as §1
# [37] = molecular target: Gal(b1-4)GlcNAc(b1-2)[Gal(b1-4)GlcNAc(b1-6)]Man(a1-6)[GlcNAc(b1-4)][Gal(b1-4)GlcNAc(b1-2)Man(a1-3)]Man(b1-4)GlcNAc(b1-4)GlcNAc
# How it was run: as §1
# [38] = molecular target: Gal(b1-4)GlcNAc(b1-2)[Gal(b1-4)GlcNAc(b1-6)]Man(a1-6)[GlcNAc(b1-4)][Gal(b1-4)GlcNAc(b1-2)[Gal(b1-4)GlcNAc(b1-4)]Man(a1-3)]Man(b1-4)GlcNAc(b1-4)[Fuc(a1-6)]GlcNAc
# How it was run: as §1
# [39] = molecular target: Gal(b1-4)GlcNAc(b1-3)Gal(b1-3)GalNAc
# How it was run: as §1
binder,measurement,setting,value
B1,glycan array binding signal (z-score),[1],-0.386
same,glycan array binding signal (z-score),[2],-0.601
same,glycan array binding signal (z-score),[3],-0.491
same,glycan array binding signal (z-score),[4],-0.249
same,glycan array binding signal (z-score),Gal(b1-3)GlcNAc6S,-0.549
same,glycan array binding signal (z-score),[5],-0.234
same,glycan array binding signal (z-score),[6],0.269
same,glycan array binding signal (z-score),[7],-0.026
same,glycan array binding signal (z-score),[8],-0.421
same,glycan array binding signal (z-score),[9],-0.274
same,glycan array binding signal (z-score),[10],-0.317
same,glycan array binding signal (z-score),[11],-0.191
same,glycan array binding signal (z-score),[12],-0.291
same,glycan array binding signal (z-score),[13],-0.193
same,glycan array binding signal (z-score),[14],-0.233
same,glycan array binding signal (z-score),[15],-0.259
same,glycan array binding signal (z-score),[16],-0.274
same,glycan array binding signal (z-score),Gal(b1-4)Gal,-0.627
same,glycan array binding signal (z-score),[17],-0.304
same,glycan array binding signal (z-score),[18],-0.137
same,glycan array binding signal (z-score),Gal(b1-4)Glc,-0.176
same,glycan array binding signal (z-score),Gal(b1-4)Glc6S,-0.089
same,glycan array binding signal (z-score),Gal(b1-4)GlcNAc,0.8
same,glycan array binding signal (z-score),[19],-0.372
same,glycan array binding signal (z-score),Gal(b1-4)GlcNAc(b1-2)Man,-0.339
same,glycan array binding signal (z-score),[20],-0.247
same,glycan array binding signal (z-score),[21],2.71
same,glycan array binding signal (z-score),[22],0.087
same,glycan array binding signal (z-score),[23],-0.519
same,glycan array binding signal (z-score),[24],-0.101
same,glycan array binding signal (z-score),[25],-0.236
same,glycan array binding signal (z-score),[26],-0.431
same,glycan array binding signal (z-score),[27],0.05
same,glycan array binding signal (z-score),[28],-0.467
same,glycan array binding signal (z-score),[29],-0.372
same,glycan array binding signal (z-score),[30],-0.277
same,glycan array binding signal (z-score),[31],-0.152
same,glycan array binding signal (z-score),[32],-0.515
same,glycan array binding signal (z-score),[33],0.049
same,glycan array binding signal (z-score),[34],-0.361
same,glycan array binding signal (z-score),[35],0.431
same,glycan array binding signal (z-score),[36],-0.445
same,glycan array binding signal (z-score),[37],-0.314
same,glycan array binding signal (z-score),[38],0.087
same,glycan array binding signal (z-score),[39],-0.403
